In PubChem BioAssay AID1477 (National Center for Advancing Translational Sciences (NCATS), 2009):
Among all 230,000 compounds or so, fewer than 10 were called active. Inconclusive means that the source gave no clear call. Such entries were picked first, then a sample of the others. Calls come from the whole dose curve; as a rule, active = well fitted curve in the direction sought with a large enough effect; inconclusive = small, poorly fitted or top-dose-only effect, or effect the other way, or another doubt; inactive = no such curve, though single readings can be large or run the other way. Potencies of inconclusive entries are left out as doubtful fits.

The compounds below were run against Runt-related transcription factor 1 (Homo sapiens) + Core-binding factor subunit beta (Homo sapiens) (UniProt Q01196+Q13951) (assay: qHTS Assay for Compounds Blocking the Interaction Between CBF-beta and RUNX1 for the Treatment of Acute Myeloid Leukemia). Conditions: AlphaScreen CBFb-His/RUNX1-biotin binding, biochemical; activity, negative = inhibition: at 59.8 µM (top of the series) unless noted.
Outline: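 His-tagged CBF-beta and biotinylated RUNX1 (30 nM each) were premixed 20 min at room temperature, exposed to compound for 15 min, then given nickel-chelate and streptavidin AlphaScreen beads (50 ng each). After 90 min, AlphaScreen signal was read.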
Throughout, for activity, negative = inhibition: % of control where 0% means no effect.

| SMILES | Potency | activity, negative = inhibition |
| --- | --- | --- |
| C(/CCc1ccccc1)=N\Nc1nc2ccccc2[nH]1 | inconclusive [inhibitor, single point] | – |
| O=C1c2ccccc2C(=O)N1Cc1ccccn1 | inactive | – |
| CCSc1nc2ccccc2c(=O)n1Cc1ccc(F)cc1 | inconclusive [activator, single point] | – |
| COC(=O)c1cn(C(=O)c2ccc(C)cc2C)c2ccccc12 | inconclusive [activator, partial curve] | – |
| O=C(NCc1cccs1)Nc1cccs1 | inconclusive [inhibitor, single point] | – |
| O=C(NCc1nc2ccccc2[nH]1)C1=C[C@H](c2ccc(C(F)(F)F)cc2)C[C@H](OCc2ccc(CO)cc2)O1 | inconclusive [inhibitor, single point] | – |
| O=C1NC(c2cc3ccccc3nc2Cl)Nc2ccccc21 (configuration not stated) | inactive | – |
| N[C@H](Cc1cc(I)c(Oc2cc(I)c(O)c(I)c2)c(I)c1)C(=O)O | inconclusive [inhibitor, partial curve, poor fit] | – |
| O=C1C(=Cc2ccco2)C(=O)c2ccccc21 | inconclusive [inhibitor, single point] | – |
| O=c1ccc2ccccc2o1 | inconclusive [activator, single point] | – |
| CN(C)Cc1cc(O)c(CN(C)C)cc1O | inconclusive [inhibitor, single point] | – |
| O=C1CCCC(=O)C1CS(=O)(=O)c1ccccc1 | inactive | – |
| COc1cc(OC)c(NC(=O)/C=C/C(=O)O)cc1Cl | inconclusive [inhibitor, single point] | – |
| CC(C)(C)C(O)C(Cc1ccc(Cl)cc1Cl)n1cncn1 (configuration not stated) | inactive | – |
| CCCCn1c(N)c(Br)c(=O)[nH]c1=O | inactive | – |
| CN(Cc1ccccc1)C(=O)C1CCCN1S(=O)(=O)c1ccc2c(c1)n(C)c(=O)c(=O)n2C (configuration not stated) | inactive | – |
| COc1cccc(/C=N/n2c(-c3n[nH]c4c3CCC4)n[nH]c2=S)c1O | inconclusive [inhibitor, single point] | – |
| CN(CCn1ccnc1)Cc1cn(-c2ccccc2)nc1-c1ccc2c(c1)OCO2 | inactive | – |
| Cc1cc(/C=C2/C(=N)N3C(=NC2=O)SN=C3S(C)(=O)=O)c(C)n1-c1ccc(F)cc1 | inconclusive [inhibitor, single point] | – |
| Cc1cc(N/N=C/c2cccc([N+](=O)[O-])c2)nc(-n2nc(C)cc2C)n1 | inconclusive [activator, single point] | – |
| C=CCn1c(=S)[nH]c2scc(-c3ccco3)c2c1=O | inconclusive [inhibitor, single point] | – |
| C(=C\c1ccccc1)/C=N/Nc1nc2ccccc2[nH]1 | inconclusive [inhibitor, partial curve] | – |
| COC(=O)Cc1ccc(NC(=S)NCCO)cc1 | inactive | – |
| COC(=O)Nc1ccc(=O)n(Cc2c(Cl)cccc2Cl)c1 | inactive | – |

| SMILES | Potency | activity, negative = inhibition |
| --- | --- | --- |
| COc1ccccc1Nc1nc(N)nc(CN2CCN(c3ccccc3)CC2)n1 | inactive | – |
| COc1ccccc1C(=O)NC1CCCCCCC1 | inconclusive [activator, single point] | – |
| CSc1ccccc1NC(=S)N/N=C/c1cccn1Cc1cccc(C)c1 | inconclusive [inhibitor, single point] | – |
| CC1(C)Nc2ccc(O)cc2-c2c1ssc2=S | inconclusive [inhibitor, single point] | – |
| CC1(c2ccc3noc(-c4cccc(F)c4)c3c2)OCCO1 | inconclusive [activator, full curve] | – |
| COc1ccc(N2CCN(c3nc4ccccc4n3CC(=O)c3ccccc3)CC2)cc1 | inconclusive [inhibitor, single point] | – |
| O=C(Nc1cccc(NC(=O)N2CCN(c3ccccc3)CC2)c1)N1CCN(c2ccccc2)CC1 | inconclusive [inhibitor, single point] | – |
| CN(C)S(=O)(=O)c1cc(NC(=O)COC(=O)CCSc2ccc(Cl)cc2)ccc1Cl | inconclusive [activator, single point] | – |
| O=C1SCCC1NC(=O)C(c1ccccc1)c1ccccc1 (configuration not stated) | inactive | – |
| COc1cc(C(CC(=O)N2CCCC2)c2c(OC)cc(OC)c3c(-c4ccccc4)cc(=O)oc23)cc(OC)c1OC (configuration not stated) | inconclusive [inhibitor, single point] | – |
| Clc1ccc(-c2cc3ccccc3nc2N2CCOCC2)cc1 | inconclusive [activator, single point] | – |
| N#CC1CN(C(c2ccccc2)c2ccccc2)C1 | inconclusive [activator, partial curve, poor fit] | – |
| CN=c1scc(-c2ccccc2Br)n1/N=C/c1ccc[nH]1 | inconclusive [inhibitor, single point] | – |
| COc1ccccc1NC(=S)NNC(=O)c1nn(C)c(C)c1Br | inconclusive [inhibitor, partial curve] | – |
| Cc1cc(C)cc(OCC(=O)Nc2ccc(N3CCCC3)cc2)c1 | inconclusive [inhibitor, single point] | – |
| COc1ccc(NC(=O)c2c3c(nc4ccccc24)CCC3)cc1S(=O)(=O)N1CCOCC1 | inconclusive [inhibitor, partial curve] | – |
| CC1=NN(C(=O)COc2ccc(C)c(C)c2)C(O)(c2ccccc2)C1 (configuration not stated) | inactive | – |
| COc1ccc(/C=N/NC(=O)CCn2cnc(-c3ccccc3)c2-c2ccccc2)cc1 | inconclusive [inhibitor, single point] | – |
| Clc1ccc2nc(-c3ccc(Br)s3)cn2c1 | inactive | – |
| COc1ccc(CN(C(=O)c2ccco2)c2ccc(C)cc2)cc1OC | inactive | – |
| Cc1ccccc1Cn1c(O)c(N=NC(=S)Nc2ccccc2F)c2ccccc21 | inconclusive [inhibitor, single point] | – |
| CCOC(=O)CNc1c(-c2ccc(O)cc2)nc2ccc(Cl)cn12 | inactive | – |
| O=c1c(Cl)cc(Cl)nn1-c1ccccc1 | inactive | – |
| CCCCC1=CC2=C(c3ccco3)C(=O)C(C)(OC(=O)c3ccc(OC)cc3)C(=O)C2=CN1CC1CC1 (configuration not stated) | inconclusive [inhibitor, single point] | – |

| SMILES | Potency | activity, negative = inhibition |
| --- | --- | --- |
| Cc1ccc(Nc2c([N+](=O)[O-])cc(C(=O)N3CC(=O)Nc4ccccc43)cc2[N+](=O)[O-])c(C)c1 | inconclusive [inhibitor, partial curve] | – |
| N=C(CC1CC(=O)NC(=O)C1)C1=C(O)CCCC1=O | inactive | – |
| Cc1cc(NC(=O)COc2ccccc2)n(-c2ccccc2)n1 | inactive | – |
| c1ccc(-c2nc(N3CCCCCC3)c3ccccc3n2)nc1 | inconclusive [inhibitor, partial curve] | – |
| Cc1ccc(-c2cc(C3C4C=CCC(C)C4C(=O)N3Cc3ccccc3)ccc2F)cc1 (configuration not stated) | inconclusive [activator, single point] | – |
| CN1C(=O)CCS(=O)(=O)[C@@H]1c1ccc(Cl)cc1 | inactive | – |
| COc1cccc(-c2noc(-c3ccc(Br)o3)n2)c1 | inconclusive [activator, single point] | – |
| CC(C)(C)C(=O)/C=c1\s/c(=C\c2ccc(-c3ccc([N+](=O)[O-])cc3)o2)c(=O)n1CC(=O)NC(N)=O | inactive | – |
| Cc1cc(N2C(=O)C3C4C=CC(C4)C3C2=O)ccc1NC(=O)c1cccs1 (configuration not stated) | inconclusive [inhibitor, single point] | – |
| Cc1ccccc1N1C(=O)CC1(C#N)c1ccc(OCc2ccccc2)cc1 (configuration not stated) | inconclusive [activator, single point] | – |
| Cc1cccc(Cn2c(O)c(N=NC(=S)Nc3ccccc3F)c3ccccc32)c1 | inactive | – |
| COCc1cc(CN2CCCC2)c(O)c2ncccc12 | inconclusive [inhibitor, single point] | – |
| O=C(NCCc1ccccc1)c1cc(=O)[nH]c2ccccc12 | inconclusive [activator, partial curve] | – |
| Fc1ccc(-c2cc(C(F)(F)F)nc(NCc3cccs3)n2)cc1 | inconclusive [activator, partial curve] | – |
| CC1(C)OC2OC(C(=O)N/N=C/c3cc(Br)ccc3O)C3OC(C)(C)OC3C2O1 (configuration not stated) | inactive | – |
| CSc1ccccc1NC(=O)COc1ccccc1Cl | inconclusive [activator, single point] | – |
| CC(C)=CCC/C(C)=C/CO/N=C1/C[C@@H](O)[C@@H](O)[C@@H]2[C@H]3C(=O)N(c4ccc(F)cc4F)C(=O)[C@@H]3CC[C@H]12 | – | inactive: 19.5% [at 13.1 µM] |
| CC1=NN(c2ccc(Cl)cc2)C(=O)/C1=C\c1cccn1-c1ccc(S(N)(=O)=O)cc1 | inconclusive [inhibitor, single point] | – |
| CC(C)(C)C1=Nn2c(nnc2-c2n[nH]c3c2CCC3)SC1 | inactive | – |
| c1ccc(-c2nnc3sc(CN4CCc5ccccc54)cn23)cc1 | inactive | – |
| O=C(NCCc1ccccc1)c1ccc2nc(-c3ccco3)c(-c3ccco3)nc2c1 | inconclusive [inhibitor, single point] | – |
| S=c1[nH]c2ccccc2s1 | inconclusive [inhibitor, partial curve, poor fit] | – |
| CSc1nc(N)nc(SCC(=O)c2ccccc2)c1C#N | inactive | – |
| COc1ccc(C(=O)NC=C2C(=O)OC(C)(C)OC2=O)cc1 | inconclusive [activator, single point] | – |
